# Assay results published in PubChem BioAssay (Tox21).
# “And” between values parts separate entries of the source, which are not always exact repeats. Identical values can stand only once. The shares of active, inactive and inconclusive entries below differ from those in the screen. Where the call is inconclusive, the potency comes from a doubtful curve fit. The source holds several records for some structures; these can differ, active in one and inactive in another. The source made the active and inactive calls. Unless noted, calls come from the whole dose curve; as a rule, active = well fitted curve in the direction sought with a large enough effect in the repeat runs; inconclusive = weak or mixed curves; inactive = no such curve, though single readings can be large; an effect the other way counts as inactive or inconclusive.
# What was measured:
# [1] = biological target: Nuclear receptor ROR-gamma (Homo sapiens) (UniProt P51449); assay: qHTS assay to identify small molecule antagonists of the retinoid-related orphan receptor gamma (ROR-gamma) signaling pathway (AID 1159521; note: nearly all actives have a fitted effect of over 50% in size)
# Procedure, shortened: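 Cells were plated, rested 4 h at 37 C, exposed to compounds for 2 h, then given 1 uM final doxycycline hyclate to induce RORγ expression. After 16 h, ONE-Glo luminescence from the ROR response element reporter was measured.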
# [2] = qHTS assay to identify small molecule agonists of the AP-1 signaling pathway (AID 1159526; calls by dose curve; for activation: % is set by controls: 0 for no effect and ±100 for the full control effect); details: ME-180 (cervical carcinoma) AP-1-bla reporter, beta-lactamase FRET ratio, 5 h; activation: at 76.8 µM (top of the series) unless noted
# [3] = qHTS assay to identify small molecule agonists of the AP-1 signaling pathway - cell viability counter screen (AID 1159525; calls by dose curve; note: nearly all actives have a fitted effect of over 55% in size)
# Procedure, shortened: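 AP-1-bla ME-180 cells in Opti-MEM with 0.5% dialyzed FBS, compound exposure 5 h at 37 C in 15-point titration. Viability read in the same wells as ATP content by CellTiter-Glo luminescence, normalised to tetra-n-octylammonium bromide and DMSO controls.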
# [4] = qHTS assay to identify small molecule agonists of the RXR signaling pathway - cell viability counter screen (AID 1159529); note: nearly all actives have a fitted effect of over 50% in size
# Procedure, shortened: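 Steps: seed RXR-alpha-UAS-bla HEK 293T cells in assay medium containing 2% charcoal-stripped FBS; incubate 5 hr; add compounds in DMSO; incubate 16 hr at 37 C; after the bla read, add CellTiter-Glo and read luminescence at 30 min.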
# [5] = biological target: Retinoic acid receptor RXR-alpha (Homo sapiens) (UniProt P19793); assay: qHTS assay to identify small molecule agonists of the RXR signaling pathway (AID 1159527; calls by dose curve; note: nearly all actives have a fitted effect of over 35% in size; for activation: % is set by controls: 0 for no effect and ±100 for the full control effect); details: HEK293T RXRa-UAS-bla, beta-lactamase ratio, 16 h; activation: at 76.8 µM (top of the series) unless noted
# Sequence of UniProt P19793 (P19793 whole entry, looked up): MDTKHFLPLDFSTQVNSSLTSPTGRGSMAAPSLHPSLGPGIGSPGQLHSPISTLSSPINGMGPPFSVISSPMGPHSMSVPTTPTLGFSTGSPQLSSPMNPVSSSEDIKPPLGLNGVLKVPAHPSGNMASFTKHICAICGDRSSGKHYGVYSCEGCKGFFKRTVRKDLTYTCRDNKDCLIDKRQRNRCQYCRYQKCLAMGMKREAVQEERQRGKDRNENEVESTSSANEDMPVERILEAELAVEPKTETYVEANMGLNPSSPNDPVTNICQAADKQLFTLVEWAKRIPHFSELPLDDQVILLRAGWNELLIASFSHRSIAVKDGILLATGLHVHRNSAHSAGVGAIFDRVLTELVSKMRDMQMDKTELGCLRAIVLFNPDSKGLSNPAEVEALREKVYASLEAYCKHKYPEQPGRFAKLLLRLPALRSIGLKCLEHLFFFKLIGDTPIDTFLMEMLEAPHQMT
# Procedure, shortened: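 Cells plated at 2,000/well, rested 5 hr at 37 C, pin-dosed with DMSO compound solutions, incubated 16 hr, then loaded with B/G FRET substrate for 2 hr at RT before dual-emission fluorescence reading.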
# [6] = qHTS assay to identify small molecule antagonists of the retinoid acid receptor (RAR) signaling pathway - cell viability counter screen (AID 1159551); note: nearly all actives have a fitted effect of over 35% in size
# Procedure, shortened: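 Following overnight attachment, C3RL4 reporter cells received DMSO-dissolved compounds and then retinol (1 uM final). Six hours later at 37 C, ATP content was measured by CellTiter-Glo luminescence.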
# [7] = qHTS assay to identify small molecule antagonists of the retinoic acid receptor (RAR) signaling pathway (AID 1159552; note: nearly all actives have a fitted effect of over 50% in size)
# Procedure, shortened: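 Retinol at 1 uM final stimulated RARE-luciferase expression in C3RL4 cells exposed to test compounds for 6 hr at 37 C. Reduced luminescence, read 30 min after detection reagent, indicated pathway antagonism.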
# [8] = qHTS assay to identify small molecule agonists of the retinoic acid receptor (RAR) signaling pathway (AID 1159553); details: C3RL4 RARE luciferase reporter, agonist, 6 h; activation: at 73.3 µM (top of the series) unless noted
# Procedure, shortened: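 Cell line C3RL4, RARE luciferase reporter. Treatment: compounds in DMSO, 6 hr, 37 C, 5% CO2, after overnight plating. Detection: luminescence, 30 min RT after reagent.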
# [9] = qHTS assay to identify small molecule agonists of the constitutive androstane receptor (CAR) signaling pathway - cell viability counter screen (AID 1224836); note: nearly all actives have a fitted effect of over 45% in size
# Procedure, shortened: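 Cells were seeded and incubated 4 hrs. Compounds were added across 15 concentrations together with PK11195 at 0.75 uM final. Plates were incubated 23 hrs at 37 C. CellTiter-Fluor was added and fluorescence measured.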
# [10] = qHTS assay to identify small molecule antagonists of the retinoid-related orphan receptor gamma (ROR-gamma) signaling pathway - cell viability counter screen (AID 1159520); note: nearly all actives have a fitted effect of over 50% in size
# Procedure, shortened: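 Tet-on ROR gamma CHO cells were given compounds for 2 hr, then doxycycline hyclate at 1 uM final, and incubated 16 hr at 37 C. Viability was measured as ATP content by CellTiter-Glo luminescence.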
# [11] = qHTS assay to identify small molecule antagonists of the estrogen related receptor (ERR) signaling pathway from Tox21 library - cell viability counter screen (AID 1224834); note: nearly all actives have a fitted effect of over 30% in size
# Procedure, shortened: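 Viability readout (CellTiter-Fluor fluorescence, 30 min at 37 C) multiplexed with the ERR assay; cells treated 17.5 h at 37 C with compounds delivered in DMSO.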
# [12] = biological target: Luciferin 4-monooxygenase (Photinus pyralis) (UniProt P08659); assay: qHTS assay to identify small molecule inhibitors of firefly luciferase (AID 1224835); note: nearly all actives have a fitted effect of over 25% in size
# Sequence of UniProt P08659 (P08659 whole entry, looked up): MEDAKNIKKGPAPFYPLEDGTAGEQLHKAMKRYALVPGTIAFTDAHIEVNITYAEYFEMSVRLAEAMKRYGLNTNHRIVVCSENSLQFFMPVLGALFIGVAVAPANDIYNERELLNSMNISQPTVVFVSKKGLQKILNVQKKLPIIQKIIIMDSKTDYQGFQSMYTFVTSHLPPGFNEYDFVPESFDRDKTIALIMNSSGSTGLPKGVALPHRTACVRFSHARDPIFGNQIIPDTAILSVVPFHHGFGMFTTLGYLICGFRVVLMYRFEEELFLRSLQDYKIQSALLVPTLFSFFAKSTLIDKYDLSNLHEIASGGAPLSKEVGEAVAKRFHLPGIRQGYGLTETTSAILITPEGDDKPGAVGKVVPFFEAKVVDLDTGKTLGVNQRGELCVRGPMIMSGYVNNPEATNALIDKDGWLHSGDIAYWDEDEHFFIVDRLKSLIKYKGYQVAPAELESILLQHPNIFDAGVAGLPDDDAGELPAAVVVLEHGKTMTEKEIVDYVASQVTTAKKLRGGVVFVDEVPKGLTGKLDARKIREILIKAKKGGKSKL
# Procedure, shortened: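 Biochemical qHTS: compounds run as interplate titrations against purified firefly enzyme, with D-luciferin and ATP each at its KM concentration. Light output recorded by CCD imaging.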
# [13] = qHTS assay to identify small molecule antagonists of the constitutive androstane receptor (CAR) signaling pathway - cell viability counter screen (AID 1224837); note: nearly all actives have a fitted effect of over 45% in size
# Procedure, shortened: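 Fluorescence from CellTiter-Fluor served as the viability signal. Human hepatoma HepG2 cells stably bearing hCAR and CYP2B6-2.2kb received compound plus CITCO (50 nM final) for 23 hr.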
# Potency is the fitted concentration of half-maximal effect; tags give direction and shape of the fitted curve or compound fluorescence and quenching.
structure (smiles),measurement,setting,value
CC1(C)[C@H](C(=O)O[C@H](C#N)c2cccc(Oc3ccccc3)c2)[C@@H]1C=C(Br)Br,Potency,[1],"inconclusive: 68.6 µM [inhibitor, partial curve, poor fit]"
CCN(CC)CCOC(=O)C(C)(c1ccccc1)c1ccccc1,Potency,[1],"inconclusive: 13.3 µM [inhibitor, full curve, poor fit]"
CC1(C)C(C=C(Cl)Cl)C1C(=O)OC(C#N)c1cccc(Oc2ccccc2)c1 (stereo not given),Potency,[1],"inconclusive: 68.5 µM [inhibitor, single point]"
same,Potency,[2],"inconclusive: 43.6 µM [cytotoxic, partial curve, poor fit]"
CCCCCCCCCCn1cc[n+](C)c1,Potency,[1],"inconclusive: 7.9 µM [inhibitor, full curve, poor fit]"
same,Potency,[3],"inconclusive: 25.2 µM [cytotoxic, partial curve, poor fit]"
same,Potency,[2],"inconclusive: 62.3 µM [activator, partial curve, poor fit]"
same,activation,[2],inconclusive: -18.8%
same,Potency,[4],"inconclusive: 5.6 nM [cytotoxic, full curve, poor fit] and inconclusive: 77.5 nM [cytotoxic, full curve, poor fit]"
CC1(C)CN=C(NN=C(/C=C/c2ccc(C(F)(F)F)cc2)/C=C/c2ccc(C(F)(F)F)cc2)NC1,Potency,[1],active: 12.2 µM
same,Potency,[3],active: 43.6 µM
same,Potency,[2],"inconclusive: 13.8 µM [cytotoxic, full curve]"
same,Potency,[5],"inconclusive: 24.5 µM [cytotoxic, full curve]"
same,Potency,[6],active: 43.3 µM
same,Potency,[7],active: 9.69 µM
same,Potency,[8],"inconclusive: 21.7 µM [inhibitor, partial curve]"
same,Potency,[9],active: 24.3 µM
CNC(=O)Oc1ccccc1C1OCCO1,Potency,[1],"inconclusive: 0.542 µM [inhibitor, full curve]"
same,Potency,[2],inactive
O=C1C=CC(=O)C=C1,Potency,[10],"inconclusive: 61.4 µM [cytotoxic, single point] and inconclusive: 61.1 µM [cytotoxic, partial curve, poor fit]"
same,Potency,[5],inactive
CCN(CC)C(=S)S,Potency,[10],"inconclusive: 6.86 µM [cytotoxic, full curve]"
same,Potency,[4],"inconclusive: 44 µM [cytotoxic, partial curve] and inconclusive: 21.9 µM [cytotoxic, single point]"
same,Potency,[11],active: 54.9 µM and active: 13.6 µM and active: 24.3 µM
same,Potency,[12],"inconclusive: 90.2 µM [inhibitor, partial curve, poor fit] and inconclusive: 70.6 µM [inhibitor, partial curve]"
same,Potency,[9],active: 54.9 µM and active: 12.1 µM and active: 19.3 µM
same,Potency,[13],"inconclusive: 61.6 µM [cytotoxic, single point]"
CCc1cccc(C)c1N(C(=O)CCl)[C@@H](C)COC,Potency,[10],"inconclusive: 68.6 µM [cytotoxic, partial curve, poor fit]"
same,Potency,[5],"inconclusive: 43.6 µM [inhibitor, partial curve]"
same,Potency,[4],inactive
same,Potency,[11],"inconclusive: 61.1 µM [cytotoxic, partial curve]"
N#Cc1c[nH]cc1-c1cccc2c1OC(F)(F)O2,Potency,[10],"inconclusive: 21.7 µM [cytotoxic, partial curve, poor fit]"
same,Potency,[5],active: 1.38 µM
same,Potency,[11],"inconclusive: 27.3 µM [cytotoxic, partial curve]"
COCC(C)N(C(=O)CCl)c1c(C)csc1C (stereo not given),Potency,[1],"inconclusive: 48.6 µM [inhibitor, partial curve]"
same,Potency,[2],"inconclusive: 61.6 µM [activator, partial curve, poor fit]"
same,Potency,[5],"inconclusive: 21.9 µM [rising, full curve]"
same,Potency,[4],"inconclusive: 61.6 µM [cytotoxic, single point]"
CO/N=C(\C(=O)OC)c1ccccc1CO/N=C(\C)c1cccc(C(F)(F)F)c1,Potency,[10],"inconclusive: 1.22 µM [cytotoxic, full curve]"
same,Potency,[5],"inconclusive: 21.9 µM [rising, partial curve, poor fit]"
same,Potency,[6],"inconclusive: 2.73 µM [cytotoxic, full curve, poor fit]"
same,Potency,[7],"inconclusive: 4.33 µM [inhibitor, partial curve]"
same,Potency,[9],"inconclusive: 7.7 µM [cytotoxic, full curve]"
O=c1c(C2CC(c3ccc(-c4ccc(Br)cc4)cc3)Cc3ccccc32)c(O)sc2ccccc12 (stereo not given),Potency,[1],active: 2.66 µM
same,Potency,[3],"inconclusive: 23.9 µM [cytotoxic, partial curve, poor fit]"
same,Potency,[5],"inconclusive: 10.7 µM [rising, single point]"
same,Potency,[7],"inconclusive: 21.1 µM [inhibitor, partial curve]"
same,Potency,[11],"inconclusive: 33.5 µM [cytotoxic, partial curve]"
CCCCNC(=O)n1c(NC(=O)OC)nc2ccccc21,Potency,[1],"inconclusive: 68.2 µM [inhibitor, single point]"
same,Potency,[3],"inconclusive: 48.7 µM [cytotoxic, single point]"
same,activation,[2],inconclusive: -31.3%
same,Potency,[5],"inconclusive: 54.7 µM [inhibitor, single point]"
same,Potency,[8],"active: 13.6 µM and inconclusive: 9.69 µM [activator, partial curve, poor fit]"
same,Potency,[11],"inconclusive: 76.6 µM [cytotoxic, single point]"
same,Potency,[12],"inconclusive: 44.8 µM [inhibitor, partial curve]"
